From PubChem BioAssay AID1030 (National Center for Advancing Translational Sciences (NCATS), 2008)
The campaign covered roughly 220,000 compounds. About 16,000 (7.3%) were called active. The inconclusive results got no clear call from the source; some entries with a clear call stand among them for comparison. The call rests on the fitted dose curve; in most records, active means well fitted inhibition curve with a large enough effect (not every such curve was filed as active); inconclusive means small, poorly fitted or top-dose-only effect, or another doubt; inactive means no such curve, though single readings can be large or run the other way. No potency is given beside an inconclusive call; the fits are too rough.

The compounds below were run against Aldehyde dehydrogenase 1A1 (Homo sapiens) (UniProt P00352) (assay: qHTS Assay for Inhibitors of Aldehyde Dehydrogenase 1 (ALDH1A1)). Conditions: Purified ALDH1A1, NADH fluorescence, propionaldehyde substrate; series mostly up to 75.3 µM.
Potency means the concentration at half of the fitted maximal effect; tags describe the fitted curve by direction and shape.

UniProt P00352, sequence (P00352 whole entry, looked up): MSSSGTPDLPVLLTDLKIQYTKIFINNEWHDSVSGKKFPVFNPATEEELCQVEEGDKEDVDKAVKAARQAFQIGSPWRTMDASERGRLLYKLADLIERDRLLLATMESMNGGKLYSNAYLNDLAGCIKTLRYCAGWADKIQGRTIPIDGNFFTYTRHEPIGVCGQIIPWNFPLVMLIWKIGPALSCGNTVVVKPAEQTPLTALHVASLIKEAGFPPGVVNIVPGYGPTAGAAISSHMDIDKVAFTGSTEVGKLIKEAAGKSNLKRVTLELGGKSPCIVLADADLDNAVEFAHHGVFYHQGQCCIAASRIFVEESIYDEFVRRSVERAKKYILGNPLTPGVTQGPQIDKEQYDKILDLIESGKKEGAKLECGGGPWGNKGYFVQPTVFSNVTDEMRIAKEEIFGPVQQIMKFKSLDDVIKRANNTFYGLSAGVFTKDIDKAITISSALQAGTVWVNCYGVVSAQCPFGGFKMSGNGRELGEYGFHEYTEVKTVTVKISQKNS

Compound	Potency
COc1cccc(N2CC(O)=C(c3nc4ccccc4c(=O)[nH]3)C2=N)c1	inconclusive [inhibitor, partial curve]
CCCCCCCCCc1nc2sc3c(c2c(=O)n1NC(=O)c1ccc([N+](=O)[O-])cc1)CC(C)(C)OC3	active: 7.08 µM
COc1cc(Cl)c(C)cc1NC(=O)c1cc(S(=O)(=O)N(C)C)ccc1N1CCCC1	inconclusive [inhibitor, single point]
CCCC(=O)Oc1ccc(N(C(=O)CCC)S(=O)(=O)c2cccs2)cc1	inconclusive [inhibitor, single point]
CC(C)Cn1c(SCC#N)nc2ccccc2c1=O	inconclusive [inhibitor, partial curve]
CCSc1nnc(NC(=O)Cc2ccc(OC)c(S(=O)(=O)N3CCOCC3)c2)s1	inconclusive [inhibitor, single point]
O=C(Cc1ccc(Br)cc1)N1CCN(c2ccccc2O)CC1	inconclusive [inhibitor, partial curve]
CN(CC(=O)NC(=O)NCc1ccccc1)Cc1cccc(Cl)c1Cl	inconclusive [inhibitor, partial curve, poor fit]
Cc1ccccc1CNC(=O)c1ccccc1NS(C)(=O)=O	inconclusive [inhibitor, partial curve]
CN(C(=O)Nc1ccc(Cl)c(Cl)c1)c1ccccc1C(=O)O	inconclusive [inhibitor, partial curve]
CCCN(CC(=O)Nc1ccc(C)cc1Br)CC(=O)Nc1ccc(F)c(F)c1F	inconclusive [inhibitor, single point]
COc1ccc(-c2cc(C(F)(F)F)nc(SCC(=O)Nc3sc4c(c3C#N)CCC4)n2)cc1	inconclusive [inhibitor, partial curve]
O=C(NC(=S)Nc1nc(-c2ccccc2)cs1)c1cccnc1	active: 8.91 µM
CCN1CCN(Cc2nc3c(c(=O)n(C)c(=O)n3C)n2Cc2cccc3ccccc23)CC1	inconclusive [inhibitor, single point]
COc1ccc(C(=O)OCC2CC(c3ccccc3)=NO2)cc1OC (stereo not given)	inconclusive [inhibitor, single point]
CC1(c2ccc(Cl)cc2Cl)OCC(Cn2ccnc2)O1 (stereo not given)	inconclusive [inhibitor, single point]
O=C(COc1ccc2c(C(F)(F)F)cc(=O)oc2c1)NCc1cccs1	inconclusive [inhibitor, partial curve]
CCOC(=O)c1c(C)n(C)c2ccc(OCC(O)CN3C(=O)c4ccccc4S3(=O)=O)cc12 (stereo not given)	active: 2.51 µM
COC(=O)C1=C(C(=O)OC)C(c2ccccc2O)c2sc(=O)[nH]c2S1 (stereo not given)	inconclusive [inhibitor, single point]
O=C(Nc1ccc(Cl)c(Cl)c1)c1ccc(Cl)c(Cl)c1	inactive
CCC1CN(C(=O)Nc2ccc(C)cc2)c2cc(C)ccc2O1 (stereo not given)	inconclusive [inhibitor, single point]
COc1ccc(/C=N/NC(=O)CCn2nnc3ccccc32)cc1	inconclusive [inhibitor, partial curve, poor fit]
COc1ccccc1C(=O)N1CCN(C2CCN(Cc3ccccc3)CC2)CC1	inconclusive [inhibitor, partial curve]
COc1ccc2oc(=O)c(C(=O)NCc3cccnc3)cc2c1	inconclusive [inhibitor, full curve]

Compound	Potency
CN(CC(=O)Nc1ccc([N+](=O)[O-])cc1Br)Cc1c(F)cccc1Cl	active: 10 µM
Cc1cccc(Nc2nc(N)c([N+](=O)[O-])c(N3CCOCC3)n2)c1	inconclusive [inhibitor, single point]
CNC1=C(Cl)C(=O)c2ccncc2C1=O	inactive
O=C(Nc1ccccc1N1CCCCC1)c1ccccc1F	inconclusive [inhibitor, single point]
COc1ccccc1NS(=O)(=O)c1cccc2cccnc12	inconclusive [inhibitor, partial curve]
C=C[C@]1(C)Cc2occ(C)c2C[C@H]1C(=C)C(=O)O	active: 11.2 µM
O=[N+]([O-])c1cc(S(=O)(=O)N2CCCCCC2)ccc1F	inconclusive [inhibitor, single point]
O=C(CN1C(=O)NC2(CCCc3ccccc32)C1=O)N1CCc2ccccc2C1 (stereo not given)	inconclusive [inhibitor, single point]
Cc1ccc(NC(=S)Nc2cccc3cnccc23)c(C)c1	active: 17.8 µM
CCn1nc(C(=O)OC(C(=O)c2c[nH]c3ccccc23)c2ccccc2)c2ccccc2c1=O (stereo not given)	inconclusive [inhibitor, single point]
CC1(C)C(=O)Nc2ccccc2N1C(=O)COC(=O)c1cc([N+](=O)[O-])ccc1N	inconclusive [inhibitor, single point]
COCCSc1ccccc1C(=O)NCc1ccc(S(N)(=O)=O)cc1	inconclusive [inhibitor, single point]
CC(C)CN=C(NS(=O)(=O)c1ccccc1)C(Cl)(Cl)Cl	inactive
CCOC(=O)c1sc(NC(=O)CSc2n[nH]c(-c3ccncc3)n2)c(C#N)c1C	active: 35.5 µM
O=C(CSc1nnnn1-c1ccccc1)Nc1ccc(N2CCOCC2)cc1	inconclusive [inhibitor, single point]
COc1ccc(P(=O)(COc2ccc([N+](=O)[O-])cc2)c2ccc(OC)cc2)cc1	active: 7.08 µM
Oc1ccc(N=Cc2ccc(-c3cccs3)s2)cc1	inconclusive [inhibitor, partial curve]
Cc1nn(S(=O)(=O)c2ccc(Cl)cc2)c(C)c1Sc1ccc([N+](=O)[O-])cc1	inconclusive [inhibitor, single point]
C=CCOc1ccc(/C=N/Nc2ccccn2)cc1OC	inactive
COc1ccc(-n2cc(CNCCc3cscn3)c(-c3ccccc3Cl)n2)cc1	inconclusive [inhibitor, single point]
O=C(CNCCC1=CCCCC1)Nc1ccccc1N1CCCCC1	active: 9.46 µM
CCCCCSc1nc2c(c(=O)[nH]c(=O)n2C)n1CCc1ccccc1	active: 0.708 µM
Nc1cc(-c2ccc(Cl)cc2)nn1S(=O)(=O)c1cccc2nsnc12	inactive
CN(C)CCCn1c(SCCN2C(=O)c3ccccc3C2=O)nc2ccccc2c1=O	active: 20 µM

Compound	Potency
CCCC(c1nnnn1C(C)(C)CC)N(CCCO)Cc1cc2cc(C)cc(C)c2[nH]c1=O (stereo not given)	inconclusive [inhibitor, single point]
Cc1ccc(CC(=O)OCC(=O)NC2CCCC(C)C2C)cc1C (stereo not given)	inactive
Cc1ccccc1NC(=S)c1nc2ccccc2[nH]1	inactive
COc1cc(C(=O)NCCOc2ccccc2C)c(Br)c(OC)c1OC	inconclusive [inhibitor, single point]
Cc1ccc(NC(=O)CN(C)S(=O)(=O)c2ccc(Br)s2)cc1F	inconclusive [inhibitor, full curve]
COC1=Cc2c(ccc3ccc(=O)oc23)OC1(C)C	inconclusive [inhibitor, single point]
Cc1ccc(C)c(CSc2nnc(C)c(=O)n2N)c1	inactive
CC1(C)CC(=O)C(C=NCCN2CCNC2=O)=C(O)C1	active: 20 µM
COc1ccccc1-c1nnc(NC(=O)OCC(C)C)s1	inconclusive [inhibitor, partial curve, poor fit]
COCCCN1C(=O)CC(C(=O)OC)=C1C	inconclusive [inhibitor, single point]
COc1cc(C)ccc1S(=O)(=O)N1CCN(C23CC4CC(CC(C4)C2)C3)CC1	inconclusive [inhibitor, single point]
O=C(NCc1ccco1)c1cccc(S(=O)(=O)N2CCc3ccccc32)c1	inconclusive [inhibitor, single point]
O=C1CC(N2CCN(c3nc4ccccc4s3)CC2)C(=O)N1c1cccc(F)c1 (stereo not given)	inconclusive [inhibitor, single point]
Oc1ccccc1C1Nc2cccc3cccc(c23)N1	active: 23.8 µM
CC(=O)c1sc(-c2ccc(Cl)cc2)cc1N	inconclusive [inhibitor, full curve]
Cc1ccc(S(=O)(=O)C(CCC(=O)N2CCOCC2)S(=O)(=O)c2ccc(C)cc2)cc1	inconclusive [inhibitor, single point]
CCOc1cc(C)c(C(C)C)cc1S(=O)(=O)NCc1ccccn1	active: 14.1 µM
CC(C)OP(=O)(c1ccc(N(C)C)cc1)C(O)c1ccncc1 (stereo not given)	inconclusive [inhibitor, single point]
CCOC(=O)C1CCCN(Cc2sccc2C)C1 (stereo not given)	inconclusive [inhibitor, partial curve]
O=C(COC(=O)c1ccccc1C(=O)c1ccccc1)NCc1ccc(F)cc1	inactive
O=C(NCc1ccco1)c1cc(-c2ccccc2)nc2ccccc12	inconclusive [inhibitor, single point]
Cc1nnc(NC2=NCCC2)o1	inconclusive [inhibitor, single point]
